# Measurements as given in the supplement of paper PMC8728848.
# This is one part of the list.
# Key:
# Assay in all cases: glycan array binding signal (z-score within array); higher = stronger binding
# Conditions in all cases: glycan notation: IUPAC condensed, linker removed
# [1] = target: Gal(b1-4)GlcNAc(b1-2)Man(a1-3)[Gal(b1-4)GlcNAc(b1-2)Man(a1-6)]Man(b1-4)GlcNAc(b1-4)[Fuc(a1-6)]GlcNAc
# Outline: (§1)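 Glycan array data were curated from 3228 arrays in the Consortium for Functional Glycomics database and kept only where the protein sequence was available. Glycan names were converted to IUPAC-condensed notation, and columns mapping to the same glycan were averaged. The binding signal is a within-array Z-score, averaged across arrays of the same protein sequence at different concentrations or buffers and across linkers. Negative Z-scores can be read as non-binding.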
# [2] = target: Gal(b1-4)GlcNAc(b1-2)Man(a1-3)[Gal(b1-4)GlcNAc(b1-2)Man(a1-6)][Gal(b1-4)GlcNAc(b1-4)]Man(b1-4)GlcNAc(b1-4)[Fuc(a1-6)]GlcNAc
# Outline: as §1
# [3] = target: Gal(b1-4)GlcNAc(b1-2)Man(a1-3)[Gal(b1-4)GlcNAc(b1-2)Man(a1-6)][GlcNAc(b1-4)]Man(b1-4)GlcNAc(b1-4)[Fuc(a1-6)]GlcNAc
# Outline: as §1
# [4] = target: Gal(b1-4)GlcNAc(b1-2)Man(a1-3)[GlcNAc(b1-2)Man(a1-6)]Man(b1-4)GlcNAc(b1-4)GlcNAc
# Outline: as §1
# [5] = target: Gal(b1-4)GlcNAc(b1-2)Man(a1-3)[GlcNAc(b1-4)][Gal(b1-4)GlcNAc(b1-2)Man(a1-6)]Man(b1-4)GlcNAc(b1-4)GlcNAc
# Outline: as §1
# [6] = target: Gal(b1-4)GlcNAc(b1-2)Man(a1-3)[Man(a1-6)]Man(b1-4)GlcNAc(b1-4)GlcNAc
# Outline: as §1
# [7] = target: Gal(b1-4)GlcNAc(b1-2)Man(a1-6)Man(b1-4)GlcNAc(b1-4)GlcNAc
# Outline: as §1
# [8] = target: Gal(b1-4)GlcNAc(b1-2)Man(a1-6)[GlcNAc(b1-2)Man(a1-3)]Man(b1-4)GlcNAc(b1-4)GlcNAc
# Outline: as §1
# [9] = target: Gal(b1-4)GlcNAc(b1-2)Man(a1-6)[Man(a1-3)]Man(b1-4)GlcNAc(b1-4)GlcNAc
# Outline: as §1
# [10] = target: Gal(b1-4)GlcNAc(b1-2)[Gal(b1-4)GlcNAc(b1-4)]Man(a1-3)[Gal(b1-4)GlcNAc(b1-2)Man(a1-6)]Man(b1-4)GlcNAc(b1-4)GlcNAc
# Outline: as §1
# [11] = target: Gal(b1-4)GlcNAc(b1-2)[Gal(b1-4)GlcNAc(b1-4)]Man(a1-3)[Gal(b1-4)GlcNAc(b1-2)[Gal(b1-4)GlcNAc(b1-6)]Man(a1-6)]Man(b1-4)GlcNAc(b1-4)GlcNAc
# Outline: as §1
# [12] = target: Gal(b1-4)GlcNAc(b1-2)[Gal(b1-4)GlcNAc(b1-4)]Man(a1-3)[GlcNAc(b1-4)][Gal(b1-4)GlcNAc(b1-2)Man(a1-6)]Man(b1-4)GlcNAc(b1-4)GlcNAc
# Outline: as §1
# [13] = target: Gal(b1-4)GlcNAc(b1-2)[Gal(b1-4)GlcNAc(b1-4)]Man(a1-3)[GlcNAc(b1-4)][Gal(b1-4)GlcNAc(b1-2)[Gal(b1-4)GlcNAc(b1-6)]Man(a1-6)]Man(b1-4)GlcNAc(b1-4)GlcNAc
# Outline: as §1
# [14] = target: Gal(b1-4)GlcNAc(b1-2)[Gal(b1-4)GlcNAc(b1-6)]Man(a1-6)[Gal(b1-4)GlcNAc(b1-2)Man(a1-3)]Man(b1-4)GlcNAc(b1-4)GlcNAc
# Outline: as §1
# [15] = target: Gal(b1-4)GlcNAc(b1-2)[Gal(b1-4)GlcNAc(b1-6)]Man(a1-6)[Gal(b1-4)GlcNAc(b1-2)Man(a1-3)]Man(b1-4)GlcNAc(b1-4)[Fuc(a1-6)]GlcNAc
# Outline: as §1
# [16] = target: Gal(b1-4)GlcNAc(b1-2)[Gal(b1-4)GlcNAc(b1-6)]Man(a1-6)[GlcNAc(b1-4)][Gal(b1-4)GlcNAc(b1-2)Man(a1-3)]Man(b1-4)GlcNAc(b1-4)GlcNAc
# Outline: as §1
# [17] = target: Gal(b1-4)GlcNAc(b1-2)[Gal(b1-4)GlcNAc(b1-6)]Man(a1-6)[GlcNAc(b1-4)][Gal(b1-4)GlcNAc(b1-2)[Gal(b1-4)GlcNAc(b1-4)]Man(a1-3)]Man(b1-4)GlcNAc(b1-4)[Fuc(a1-6)]GlcNAc
# Outline: as §1
# [18] = target: Gal(b1-4)GlcNAc(b1-3)Gal(b1-3)GalNAc
# Outline: as §1
# [19] = target: Gal(b1-4)GlcNAc(b1-3)Gal(b1-3)GlcNAc
# Outline: as §1
binder,measurement,setting,value
PX9961U-pdi-543-24-543 (Parabacteroides distasonis) (protein) EEPVGEFLPGQVESEENIEGIVTGAYAVLDGYYASDAINSGCSNWQFGDVVSDDAYKGGGGTGDQNQIHLMEIFNANPTGIDFEARWAALYEGIKRCNQAIRLLNGSEVKNKEQRLAEMRFLRGHYYFNLKIIYNQIPWIDETLVDPNEYNKKSNIEFSSDQLWEKILEEFSAAYKVLPESQADYGRPTKMAARAYMAKVYLYQSKWKECLEACDEVIQSGKYELFPDFRNVFLPENDNCSEIIFAIQLSINDGSPNNENGSYGDRLLPPGGPYPVYGFLRPTQNLVNAYKTDVKGLPYNDGKDVSENDYVDVRLDHTLARPNIPFMDVQLYDWTPREASVYGPYSPKKRLVSLNSTYYSPIWPYVNALNFYVIRYADLLLWRAEAAIETGDLETGRKYINMIRERAKNTQHVKTMDQSQDAANYKVGVYDEPFKSKNEAVQALRMERRLEMAHEGIRFFDLVRWGVADEVINAYIAKEKVFRSHLQNAHFVKGKHEYFPIPQSMIDICGTEVMKQNPGY,glycan array binding signal (z-score),[1],-0.189
same,glycan array binding signal (z-score),[2],-0.449
same,glycan array binding signal (z-score),[3],-0.445
same,glycan array binding signal (z-score),[4],-0.329
same,glycan array binding signal (z-score),[5],-0.173
same,glycan array binding signal (z-score),[6],1
same,glycan array binding signal (z-score),[7],0.168
same,glycan array binding signal (z-score),[8],-0.394
same,glycan array binding signal (z-score),[9],2.55
same,glycan array binding signal (z-score),[10],-0.378
same,glycan array binding signal (z-score),[11],-0.303
same,glycan array binding signal (z-score),[12],0.135
same,glycan array binding signal (z-score),[13],3.19
same,glycan array binding signal (z-score),[14],1.91
same,glycan array binding signal (z-score),[15],-0.26
same,glycan array binding signal (z-score),[16],2.65
same,glycan array binding signal (z-score),[17],-0.304
same,glycan array binding signal (z-score),[18],-0.235
same,glycan array binding signal (z-score),[19],-0.258
